Among all 310,000 compounds or so, about 14,000 (4.5%) showed an effect of 50% or more. Effects have a minus sign here. Some of the results follow.
target: human ether-à-go-go-related gene (hERG) potassium channel (human, UniProt Q12809); assay: primary screen, population patch clamp on CHO cells stably expressing hERG
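Further: peak tail current of the secondary pulse compared with the same well before compound.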

Sequence of human ether-à-go-go-related gene (hERG) potassium channel (Q12809 whole entry, looked up): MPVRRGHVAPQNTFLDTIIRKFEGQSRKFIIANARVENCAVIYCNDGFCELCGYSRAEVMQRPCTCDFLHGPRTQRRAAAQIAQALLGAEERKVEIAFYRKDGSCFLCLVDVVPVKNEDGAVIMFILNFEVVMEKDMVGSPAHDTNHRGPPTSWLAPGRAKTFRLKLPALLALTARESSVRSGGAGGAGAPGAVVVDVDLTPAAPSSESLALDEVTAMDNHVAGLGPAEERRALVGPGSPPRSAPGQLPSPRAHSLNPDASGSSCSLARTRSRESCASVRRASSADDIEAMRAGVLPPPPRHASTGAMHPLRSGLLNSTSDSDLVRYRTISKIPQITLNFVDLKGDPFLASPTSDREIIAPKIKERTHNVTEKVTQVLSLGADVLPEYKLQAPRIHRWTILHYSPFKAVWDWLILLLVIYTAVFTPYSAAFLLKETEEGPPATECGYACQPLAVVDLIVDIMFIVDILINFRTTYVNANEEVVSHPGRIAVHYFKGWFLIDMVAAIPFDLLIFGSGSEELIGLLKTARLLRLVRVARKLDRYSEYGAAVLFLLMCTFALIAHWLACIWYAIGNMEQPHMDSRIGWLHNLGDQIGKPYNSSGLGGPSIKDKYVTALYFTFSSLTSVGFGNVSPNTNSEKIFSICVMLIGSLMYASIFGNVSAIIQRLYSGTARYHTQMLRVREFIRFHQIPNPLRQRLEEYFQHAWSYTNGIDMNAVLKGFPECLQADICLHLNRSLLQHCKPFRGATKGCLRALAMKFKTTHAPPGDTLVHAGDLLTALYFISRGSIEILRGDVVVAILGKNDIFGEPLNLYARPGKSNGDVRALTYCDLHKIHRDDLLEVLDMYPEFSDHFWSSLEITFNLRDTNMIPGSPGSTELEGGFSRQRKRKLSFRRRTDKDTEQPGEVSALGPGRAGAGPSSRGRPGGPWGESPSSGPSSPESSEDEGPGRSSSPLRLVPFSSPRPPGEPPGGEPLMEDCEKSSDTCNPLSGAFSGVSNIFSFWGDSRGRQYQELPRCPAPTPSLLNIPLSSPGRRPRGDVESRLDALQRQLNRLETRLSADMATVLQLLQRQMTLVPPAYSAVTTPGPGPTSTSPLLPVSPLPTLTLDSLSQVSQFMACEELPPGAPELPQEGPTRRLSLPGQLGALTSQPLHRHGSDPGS

Row | SMILES | hERG current change (%, negative = inhibition) at 10uM [%]
1 | CCCn1cc(S(=O)(=O)c2ccc(C)cc2)c(=O)c2cc(OCC)ccc21 | -36.4
2 | Nn1c(SCC(=O)NC2CCS(=O)(=O)C2)nc2scc(-c3ccccc3)c2c1=O (stereo not drawn) | 3.48
3 | COc1ccc(Nc2cc(C(=O)NCCCN3CCOCC3)c3ccccc3n2)c(OC)c1 | -19.2
4 | COCCN1CC(C(=O)NCCc2nc(C)c(C)s2)CCC1=O (stereo not drawn) | 21.6
5 | CCC(COC)NCc1cn(-c2ccc(F)cc2F)nc1-c1ccccc1C (stereo not drawn) | -18
6 | C[C@]12CC[C@@H]3c4ccc(O)cc4[C@@H](O)C[C@H]3[C@@H]1CC[C@@H]2O | 10.4
7 | Cc1ccc(/C=N/NC(=O)Cn2nccc2C)o1 | -0.784
8 | CCOc1cc(/C=C(\C#N)C(=O)Nc2cccc(C(=O)O)c2)ccc1OCc1ccc(Br)cc1 | 15.9
9 | Cn1c(NN)nc2sc3c(c2c1=O)CCC3 | -7.28
10 | CCN(CC)CCCNC(=O)c1oc2ccc(S(=O)(=O)N3CC(C)CC(C)C3)cc2c1C (stereo not drawn) | -32
11 | O=C(CN(CC(=O)N1CCOCC1)S(=O)(=O)c1ccc(Br)s1)N1CCOCC1 | 12.8
12 | O=[N+]([O-])c1cc(C(F)(F)F)cc([N+](=O)[O-])c1NCCNC(=S)Nc1ccc(Cl)c(Cl)c1 | 12
13 | Cc1cc(NC(=O)c2ccco2)sc1C | -1.03
14 | O=C(NCC1CCCO1)C1CCN(C2CCN(C(=O)CC3CCCC3)CC2)CC1 (stereo not drawn) | -10
15 | C=CCN(CC=C)C(=O)c1ccc(OC2CCN(S(=O)(=O)N(C)C)CC2)cc1 | 14.4
16 | O=C(N/N=C/c1sc(=O)n(-c2ccccc2)c1Cl)c1ccncc1 | 15.4
17 | Cc1ccc(S(=O)(=O)N2[C@@H](c3cccc(Cl)c3)C(C(=O)O)=CC[C@H]2c2ccc(C(C)C)cc2)cc1 | 4.45
18 | CCN1C(=O)C(C(=O)c2ccccc2)SC1=S (stereo not drawn) | 23.1
19 | O=C(NCCCN1CCN(Cc2ccccc2)CC1)C1CCN(S(=O)(=O)N2CCCC2)CC1 | -18.5
20 | COc1ccc(NC(=O)Nc2nnc(-c3ccco3)s2)cc1 | 10.7
21 | Cn1c(NCCCO)nc2ccccc21 | 9.51
22 | BrC(=C\c1ccccc1)/C=N/N1CCN(Cc2ccccc2)CC1 | 4.34

Row | SMILES | hERG current change (%, negative = inhibition) at 10uM [%]
23 | O=C(NCCS(=O)(=O)NCCc1ccccc1)c1ccc2c(c1)OCO2 | -6.13
24 | O=C(CSc1nnc(-c2ccco2)c(-c2ccco2)n1)c1ccccc1 | 4.5
25 | Cc1ccn2c(=O)c(C(=O)NCCCN3CCCCC3C)c(O)nc2c1 (stereo not drawn) | 6.34
26 | O=C(O)C1CC=C(Cl)CC1C(=O)NCC1OCCc2ccccc21 (stereo not drawn) | 10.5
27 | CCOc1ccc(NC(=O)C(C)C(Cc2ccc(C)cc2)C(=O)O)cc1 (stereo not drawn) | 10.1
28 | Cc1cc(C)nc(N/N=C/c2cccc(Cl)c2)n1 | -26.7
29 | COc1ccc(S(=O)(=O)N2CCOCC2)cc1NC(=O)CSc1ccc(F)cc1 | -42.6
30 | O=C(Cn1cnc2ccccc2c1=O)N1CCN(S(=O)(=O)c2ccc(F)cc2)CC1 | -13.6
31 | CCCc1nn2c(=O)cc(CSCC(=O)Nc3ccccc3)nc2s1 | 21.4
32 | O=C(OCC(=O)N1CCCc2ccccc21)c1ccc(S(=O)(=O)C(F)F)cc1 | -28.8
33 | O=C(CSc1ncnc2sccc12)NCc1ccc2c(c1)OCO2 | -16.9
34 | Cc1cc(C(=O)CN(Cc2ccc(F)cc2)S(=O)(=O)c2ccc3c(c2)OCCO3)c(C)n1C | 6.98
35 | COc1c(F)c(F)c(C(=O)Nc2cccc(Cl)c2N2CCOCC2)c(F)c1F | 11.4
36 | CCCCNC(=O)c1cc2c(=O)n(CC)c3ccccc3c2s1 | 12.8
37 | CN(Cc1cccnc1)Cc1cn(Cc2ccccc2)nc1-c1ccc2c(c1)OCO2 | -11.7
38 | CC(=O)Nc1ccc(SCc2ncc(-c3ccccc3)o2)cc1 | -12.2
39 | CCSc1nnc(NC(=O)CSc2nc(C)cc(C)n2)s1 | -17.8
40 | O=C(O)C1Cc2ccccc2CN1C(=O)COc1ccc(Cl)cc1 (stereo not drawn) | 9.84
41 | COc1ccc([N+](=O)[O-])cc1NC1CCN(C(=O)c2cccs2)CC1 | -85.7
42 | CCCn1c(SCC(=O)NCc2ccc(Cl)cc2)n[nH]c1=O | 7.48
43 | CCCOc1ccc2c(CC)cc(=O)oc2c1C | 1.32
44 | O=C(CN1CCN(S(=O)(=O)c2cc(Cl)ccc2Cl)CC1)c1ccc(O)c(O)c1 | 26.3

Row | SMILES | hERG current change (%, negative = inhibition) at 10uM [%]
45 | COc1cc(/C=N/NC(=O)CC2(C)OCCCO2)ccc1OCc1ccccc1 | 1.35
46 | COC(=O)Nc1ccc(S(=O)(=O)N2CCCCC2)cc1 | -4.21
47 | Cc1cccc(OCC(O)Cn2c(=N)n(CCN3CCOCC3)c3ccccc32)c1.Cl (stereo not drawn) | -57.9
48 | CCCCCn1c(=O)c(C(=O)Nc2ncccc2C)c(O)c2ccccc21 | 15.3
49 | Cc1ccc2nc(-c3ccc(N)cc3)sc2c1 | 12
50 | CN1CCCCCC1=Nc1ccccc1C#N.O=C(O)C(=O)O | 13.2
51 | CCSc1nnc(C)n1-c1ccc(C(=O)O)cc1 | 13
52 | Cc1ccc(Cl)cc1N1CCN(C(=O)c2noc(C)c2[N+](=O)[O-])CC1 | 1.15
53 | Cc1cc(C(=O)Nc2ccc(S(=O)(=O)N3CCOCC3)cc2)c(C)o1 | 0.297
54 | O=C1NC(c2cccc([N+](=O)[O-])c2)Oc2ccccc21 (stereo not drawn) | 1.05
55 | Cc1cc(Br)cc(/C=N/NC(=O)c2ccc3c(c2)OCO3)c1O | 23.1
56 | CN1CCOC(=O)/C1=N/Nc1cc(Cl)ccc1Cl | 24.7
57 | Cc1ccc2nc(N/C(=N/S(=O)(=O)c3ccc(F)cc3F)c3ccccc3)sc2c1 | 24
58 | C/C(CC(=O)Nc1ccccn1)=N\NC(=O)c1ccc([N+](=O)[O-])cc1Cl | -17.3
59 | O=C(O)c1ccc(CS(=O)(=O)c2ccc(Br)cc2)cc1 | 7.12
60 | O=C(CSc1nnc(-c2ccccc2)o1)NC1CCCCC1 | -16.6
61 | CC1CCN(C(=O)Cn2nnc(-c3ccc(N)cc3)n2)CC1 | 17.7
62 | CCN(C(=O)CSc1nc2ccccc2o1)C1CCS(=O)(=O)C1 (stereo not drawn) | -3.25
63 | CCc1cc(=O)oc2c(C)c(OCC(=O)N3C[C@H]4C[C@@H](C3)c3cccc(=O)n3C4)ccc12 | 5.08
64 | O=C(C1CC1)N1N=C(c2ccccc2)CC1(O)C(F)(F)C(F)(F)F (stereo not drawn) | -10.1
65 | CCn1c2ccccc2c2cc(CN3CCN(S(=O)(=O)CC)CC3)ccc21.O=C(O)C(=O)O | -13.4
66 | CCOC(=O)/C(C#N)=C/c1cccn1-c1ccc(Cl)cc1 | 2.73

Row | SMILES | hERG current change (%, negative = inhibition) at 10uM [%]
67 | CCOC(=O)c1c(NC(=O)COc2ccccc2OCC)sc2c1CC(C)(C)NC2(C)C | 13.3
68 | Cc1ccc(CNC(=O)C(C)OC(=O)c2ccco2)cc1 (stereo not drawn) | -2.97
69 | Cc1cc(C)c(-n2c(O)c(/C=N/N3CCCCC3c3cccnc3)c(=O)[nH]c2=O)c(C)c1 (stereo not drawn) | 4.41
70 | COc1cc(-n2c(=S)[nH]c3ccccc3c2=O)c(Cl)cc1Cl | -2.77
71 | CS(=O)(=O)N1CCN(Cc2ccc(C(F)(F)F)cc2)CC1.O=C(O)C(=O)O | 0.441
72 | Cc1cccc(-n2c(-c3ccncc3)n[nH]c2=S)c1C | 16
73 | CCCCCCCC(=O)NC(Nc1ccc(S(N)(=O)=O)cc1)C(Cl)(Cl)Cl (stereo not drawn) | -5.89
74 | O=C(CCNS(=O)(=O)c1cccc2nonc12)NCCc1ccc(Cl)cc1 | -15.2
75 | Cc1sc(NC(=O)c2cc3ccccc3oc2=O)c(C(=O)OC(C)C)c1-c1ccccc1 | 5.77
76 | NC(=O)CN(Cc1ccccc1)S(=O)(=O)c1ccc2c(c1)OCCO2 | 21.8
77 | COCc1cc(/C=N\NC(=O)COc2ccccc2)ccc1OC | -6.44
78 | CCCn1c(=O)c(C(=O)NCCc2ccc(OC)cc2)c(O)c2ccccc21 | 14.1
79 | CCOc1ccc(-n2c(=S)sc3c(=O)[nH]c(SCC(=O)NCC4CCCO4)nc32)cc1 (stereo not drawn) | -3.04
80 | COc1ccccc1OCC(=O)Nc1ccc(C(N)=O)cc1 | 19.6
81 | Clc1ccc(C(c2nnnn2C2CCCC2)N2CCN(c3nc4ccccc4s3)CC2)cc1 (stereo not drawn) | 5.68
82 | CCc1ccccc1NC(=S)N(Cc1cccc(C)c1)c1cccnc1 | 20.3
83 | COCCn1c(SCC(=O)Nc2cccc(NC(C)=O)c2)nc2c([nH]c3ccccc32)c1=O | 15.2
84 | Cc1ccc(-c2c[n+](=O)c3c(n2[O-])CCC3)cc1 | 20
85 | Cc1ccc(CNC(=O)CSc2nc3ccccc3[nH]2)cc1 | 3.44
86 | Cc1cc(C)nc(SCCC(=O)Nc2ccc(F)cc2)n1 | 7.84
87 | Cc1ccc(-n2nnnc2SCC(=O)N2Cc3ccccc3CC2C(=O)O)cc1 (stereo not drawn) | 6.64

— PMC4336329 (PLoS ONE, 2015)
